Reference: article PMC4336329 (PLoS ONE, 2015)
In all, about 310,000 compounds went through this assay and about 2,200 (0.71%) showed an effect of 50% or more. Effects have a minus sign here. The list shows a part of the results.

biological target: human ether-à-go-go-related gene (hERG) potassium channel (human, UniProt Q12809); test: primary screen, population patch clamp on CHO cells stably expressing hERG
Sequence (Q12809 whole entry, looked up): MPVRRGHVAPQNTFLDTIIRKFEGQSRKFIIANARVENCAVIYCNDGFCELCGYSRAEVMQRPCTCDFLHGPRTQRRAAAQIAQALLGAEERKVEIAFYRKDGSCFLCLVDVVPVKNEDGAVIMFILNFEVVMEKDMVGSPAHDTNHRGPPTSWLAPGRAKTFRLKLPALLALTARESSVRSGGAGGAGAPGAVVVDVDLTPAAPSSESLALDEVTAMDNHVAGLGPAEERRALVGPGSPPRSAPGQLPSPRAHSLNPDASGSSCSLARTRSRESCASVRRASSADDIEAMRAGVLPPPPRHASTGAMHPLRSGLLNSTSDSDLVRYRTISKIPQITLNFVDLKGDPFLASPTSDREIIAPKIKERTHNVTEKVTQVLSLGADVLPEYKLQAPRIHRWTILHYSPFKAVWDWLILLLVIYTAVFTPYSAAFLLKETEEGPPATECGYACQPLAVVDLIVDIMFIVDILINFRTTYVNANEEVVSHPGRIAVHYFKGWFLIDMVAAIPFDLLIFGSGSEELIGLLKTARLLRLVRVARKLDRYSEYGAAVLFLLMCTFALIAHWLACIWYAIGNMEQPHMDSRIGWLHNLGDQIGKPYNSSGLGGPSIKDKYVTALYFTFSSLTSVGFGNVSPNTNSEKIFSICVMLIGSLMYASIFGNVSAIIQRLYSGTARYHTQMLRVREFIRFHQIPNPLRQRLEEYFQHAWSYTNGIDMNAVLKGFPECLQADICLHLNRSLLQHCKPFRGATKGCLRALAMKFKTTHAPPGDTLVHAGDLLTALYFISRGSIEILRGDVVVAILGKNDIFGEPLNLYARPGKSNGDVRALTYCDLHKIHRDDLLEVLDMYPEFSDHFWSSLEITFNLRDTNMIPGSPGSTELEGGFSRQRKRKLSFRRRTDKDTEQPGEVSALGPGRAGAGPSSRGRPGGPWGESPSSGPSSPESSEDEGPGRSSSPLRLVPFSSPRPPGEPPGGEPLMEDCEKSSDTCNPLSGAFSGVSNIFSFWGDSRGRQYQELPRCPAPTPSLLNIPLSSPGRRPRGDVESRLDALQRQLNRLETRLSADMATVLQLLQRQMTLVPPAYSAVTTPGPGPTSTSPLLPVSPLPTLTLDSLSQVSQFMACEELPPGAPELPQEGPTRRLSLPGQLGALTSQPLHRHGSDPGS

SMILES | hERG current change (%, negative = inhibition) at 1uM [%]
C/C(=N\NC(=O)c1n[nH]c2c1CCC2)c1cccs1 | 14.2
Cc1cccc(C(=O)Nc2ccc3c(c2)CC2(C(=O)N(C)C(=O)N(C)C2=O)C2CCCN32)c1 (stereo not shown) | 15.1
CCCC/C(C)=N/NC(=O)C(=O)NCCc1ccccc1 | 6.75
CC1CCCN(CC(O)COc2ccc(-c3ccccc3)cc2)C1 (stereo not shown) | -57.8
Cc1ccc(-c2nc(=S)c3c(n2Cc2cccnc2)CC(C)(C)OC3)cc1 | 12.2
Cc1ccc(NC(=O)CCC(=O)NNC(=O)c2ccccc2Cl)c(C)c1 | 9.61
c1ccc(-c2nc(C3CCCCC3)no2)cc1 | 6.95
COc1cc(/C=N/N2C(C)CCCC2C)cc(OC)c1O (stereo not shown) | 9.22
CC(C)(C)CNC(=O)c1ccc2c(c1)S(=O)(=O)c1cc(Cl)ccc1C2=O | 12.6
O=C(NCc1ccc(Cl)cc1)c1ccc2c(=O)n(CC3CCCO3)c(=S)[nH]c2c1 (stereo not shown) | 11.9
CCOC(=O)C1(CCc2ccccc2)CCN(Cc2cc(OC)c(OC)cc2OC)CC1 | -68.1
CC(OC(=O)CCCN=C1NS(=O)(=O)c2ccccc21)C(=O)N(C)c1ccccc1 (stereo not shown) | 6.26
Cc1ccccc1Cn1c(=O)n(CCC(=O)NCc2ccc3c(c2)OCO3)c(=O)c2ccccc21 | 16.7
O=C(NCCCN1CCN(c2ccccc2F)CC1)C1CCN(S(=O)(=O)c2cccs2)CC1 | -32.2
Cl.NCCOc1ccccc1OCCN | -4.63
COC(=O)C1(C#N)C(c2ccccc2)C1(C(=O)OC)C(=O)OC (stereo not shown) | 13.9
CCCc1nnc(NC(=O)Cn2cnc3ccccc3c2=O)s1 | 10.9
CCOc1cc(N2CCOCC2)c(OCC)cc1NC(=O)CN1CCCC1 | 5.58
CCN(C(=O)COC(=O)c1ccc(C)c(S(=O)(=O)N2CCOCC2)c1)C1CCS(=O)(=O)C1 (stereo not shown) | 4.59
Cc1nnc(N/N=C/c2ccc(-c3ccc(Br)cc3)o2)n1N.Cl | 10.3

SMILES | hERG current change (%, negative = inhibition) at 1uM [%]
COc1ccccc1OCCn1nnc2ccccc21 | 11
CN(C)c1ccc(/C=C/C(=O)c2ccc3c(c2)OCO3)cc1 | 13.7
COc1ccc(C2(C)NC(=O)N(CC(=O)NCc3ccccc3F)C2=O)cc1 (stereo not shown) | 9.8
N#Cc1cc2c(nc1SCc1nc3ccccc3[nH]1)CCC2 | -0.485
N#CC(C#N)=Cc1ccc(N2CCOCC2)cc1 | 5.01
Cc1cc(C)c(NC(=O)c2cc(C(=O)O)ccc2C(=O)O)c([N+](=O)[O-])c1 | 12.5
COCCOCC(=O)Nc1ccc(S(=O)(=O)Nc2cc(C)nc(C)n2)cc1 | 14.6
COc1ccc(S(=O)(=O)N2CCC(C(=O)N3CCN(C)CC3)CC2)cc1OC | 4.86
CCCCn1c(N)c(N(CC(C)C)C(=O)Cn2c(=O)oc3ccccc32)c(=O)[nH]c1=O | 11.8
Cc1cc(C)c2nc(N)sc2c1 | 16.2
O=C(Cc1ccccc1)NNC(=O)C1CCCC1 | 6.84
COc1ccc(N2CCN(c3nc(Cl)nc(N4CCOCC4)n3)CC2)cc1 | -2.57
Cc1ccc(S(=O)(=O)Oc2ccccc2N2C(=O)C3C4CCC(C4)C3C2=O)cc1 (stereo not shown) | 6.63
CC(C)Sc1nc2c([nH]c3ccccc32)c(=O)n1C | 14.7
Cc1ccc(C(=O)N/N=c2\oc3ccccc3cc2C(N)=O)cc1 | -8.21
O=C(/C=C/c1ccccc1Cl)Nc1ccc(S(=O)(=O)Nc2ncccn2)cc1 | 17.9
CN(c1ccc(C(=O)NCCSCc2ccco2)cc1)S(C)(=O)=O | 15
O=C(CNC(=O)c1ccco1)OCc1ccc(Cl)cc1 | 11.4
C=CCn1c(-c2c[nH]c3ccccc23)n[nH]c1=S | 11.7
COc1cc(NC(=O)c2ccco2)c(OC)cc1NC(=O)Nc1ccc(Cl)cc1 | 1.29

SMILES | hERG current change (%, negative = inhibition) at 1uM [%]
CCn1c(C(O)c2cccc(OC)c2OC)nc2ccccc21 (stereo not shown) | 1.9
Cc1nn(-c2ccccc2)c(C)c1C(=O)NCCc1ccccc1 | 12.2
NC(=O)c1ccc(NC(=O)C2COc3ccccc3O2)cc1 (stereo not shown) | 9.76
CCOC(=O)CN1C(=O)C2(OCCCO2)c2ccccc21 | 4.86
CCOc1ccc(NC(=O)COc2ccc3c(c2)OCO3)cc1 | 7.57
C=CCNS(=O)(=O)c1sccc1/C=N/O | 10.6
Cc1ccc(CN2CCN(Cc3ccco3)CC2)cc1.O=C(O)C(=O)O | 9.6
CCc1ccc(-c2nc(SCC(=O)NC3CC3)n[nH]2)cc1 | 9.57
CC(C)c1nc(C(N)=O)c2[nH]c(=O)n(-c3ccc(F)cc3)c2n1 | 7.46
COc1ccc(-c2csc(NC(C)c3nc4cc(Cl)c(N5CCCCC5)cc4n3CCCO)n2)cc1 (stereo not shown) | 16.9
O=C(NNC(=O)c1cc(-c2ccncc2)nc2ccccc12)c1ccccc1O | 6.1
COc1cc(OC)cc(-c2c(C#Cc3ccsc3)c3cc(Br)ccc3n2C)c1 | 12.9
CCCC[n+]1c(C)sc2ccc(C)cc21.[Cl-] | 17.7
COc1ccc(Br)cc1S(=O)(=O)NNC(=O)c1c(C)nc2ccccn12 | -0.741
O=C(CC12CC3CC(CC(C3)C1)C2)NC1CC1 | 19.1
O=C(CSc1nnnn1-c1ccc(F)cc1F)Nc1ccccc1F | 15.7
O=[N+]([O-])c1ccccc1S(=O)(=O)NCCSc1ccccc1 | 13.3
O=C(NC(Cc1ccccc1)C(=O)O)c1ccc(S(=O)(=O)N2CCCC2)cc1 (stereo not shown) | -0.336
